Test results reported in paper PMC4336329 (PLoS ONE, 2015).
Among all 310,000 compounds or so, about 14,000 (4.5%) showed an effect of 50% or more. The effect is printed as a negative number. Some of the results follow.

What follows are compounds tested against human ether-à-go-go-related gene (hERG) potassium channel (human, UniProt Q12809) (assay: primary screen, population patch clamp on CHO cells stably expressing hERG).
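Also: peak tail current of the secondary pulse compared with the same well before compound.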

Chain of human ether-à-go-go-related gene (hERG) potassium channel (Q12809 whole entry, looked up): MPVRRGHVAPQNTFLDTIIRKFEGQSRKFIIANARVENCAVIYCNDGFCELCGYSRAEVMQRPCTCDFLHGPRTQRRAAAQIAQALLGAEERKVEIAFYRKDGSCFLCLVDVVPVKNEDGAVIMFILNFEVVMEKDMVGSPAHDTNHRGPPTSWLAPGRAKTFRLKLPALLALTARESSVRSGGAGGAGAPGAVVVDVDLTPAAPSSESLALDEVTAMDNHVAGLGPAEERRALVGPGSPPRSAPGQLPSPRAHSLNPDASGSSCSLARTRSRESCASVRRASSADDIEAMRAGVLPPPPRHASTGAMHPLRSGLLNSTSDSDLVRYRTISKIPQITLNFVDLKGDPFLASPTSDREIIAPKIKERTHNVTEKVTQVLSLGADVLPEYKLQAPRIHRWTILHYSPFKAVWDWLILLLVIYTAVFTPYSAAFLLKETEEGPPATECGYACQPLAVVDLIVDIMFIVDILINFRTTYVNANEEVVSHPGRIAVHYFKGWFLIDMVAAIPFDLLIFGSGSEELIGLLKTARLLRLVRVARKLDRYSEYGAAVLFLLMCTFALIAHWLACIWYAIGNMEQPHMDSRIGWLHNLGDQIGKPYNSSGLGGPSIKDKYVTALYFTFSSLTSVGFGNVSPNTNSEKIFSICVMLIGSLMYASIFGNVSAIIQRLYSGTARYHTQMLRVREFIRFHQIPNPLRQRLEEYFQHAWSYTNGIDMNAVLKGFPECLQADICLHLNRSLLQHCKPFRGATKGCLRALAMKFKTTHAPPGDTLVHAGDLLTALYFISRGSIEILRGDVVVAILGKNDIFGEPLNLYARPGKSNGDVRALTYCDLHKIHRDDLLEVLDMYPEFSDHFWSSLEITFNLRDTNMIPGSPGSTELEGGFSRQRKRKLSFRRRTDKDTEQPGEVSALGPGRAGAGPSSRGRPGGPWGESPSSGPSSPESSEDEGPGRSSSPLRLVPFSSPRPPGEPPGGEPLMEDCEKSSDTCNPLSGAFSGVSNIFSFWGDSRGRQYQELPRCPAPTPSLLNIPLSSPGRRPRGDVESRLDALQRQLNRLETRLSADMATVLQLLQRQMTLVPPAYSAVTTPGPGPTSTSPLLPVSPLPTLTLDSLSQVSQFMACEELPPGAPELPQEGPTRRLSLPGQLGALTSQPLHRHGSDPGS

Structure (SMILES) | hERG current change (%, negative = inhibition) at 10uM [%]
O=C1/C(=C/c2cccnc2)Cc2ccc(Cl)cc21 | 2.02
Cc1ccc(C(C[N+](=O)[O-])Sc2ccc(N)cc2)cc1 (centres unmarked) | 9.31
O=C(Nc1ccc(Br)cc1)N1CCc2ccccc2C1 | 2.91
Cc1ccc(S(=O)(=O)c2nc(C)c3c(n2)CCC3)cc1 | 3.61
OCC(O)CN(c1ccccc1)c1ccccc1 (centres unmarked) | 2.58
O=C(NCCc1ccco1)C(=O)NCC1CCCN1S(=O)(=O)c1ccccc1 (centres unmarked) | -33.5
COc1cccc(/C=C/C(=C2/C(=O)N(c3ccccc3)N=C2C)c2ccccc2)c1OC | -20.5
Cc1ccccc1CNC(=O)CCCn1ncn2c(cc3occc32)c1=O | -14.7
O=C(Nc1nnc(-c2ccccc2F)s1)C1CCCO1 (centres unmarked) | 0.46
Cl.c1ccc(COC(CN2CCCCCC2)CN2CCCCCC2)cc1 | -63.6
COCCn1cnc2c1c(=O)n(Cc1ccccc1C#N)c(=O)n2Cc1ccccc1 | -11.4
Cc1cccc(C(=O)OC(C)CN2CCOCC2)c1.Cl (centres unmarked) | -0.467
CN(CCC#N)CC(=O)Nc1ccc(NC(=O)CN(C)CCC#N)cc1 | -4.53
Cc1ccccc1NC(=O)CSc1ccc2nnc(-c3ccccn3)n2n1 | -23.8
Cc1nc(C(=O)Nc2ccc(Cl)cc2)sc1C1(C)CC(c2ccccc2)=NO1 (centres unmarked) | 4.4
CC(=O)Nc1ccc(NC(=O)CCc2nc3sc4c(c3c(=O)[nH]2)CCCC4)cc1 | 3.55
O=C(Nc1cccnc1)Nc1ccccc1Cl | -0.946
Cc1ccc(OCc2cc(C(=O)NC3CCCCC3)no2)cn1 | 12.8
O=C(O)c1ccccc1C(=O)Nc1ccc(S(=O)(=O)N2CCCC2)cc1 | 22.3
O=C(COc1ccccc1Cc1ccccc1)Nc1cccnc1 | -26.4
CC1=C(C(=O)OCc2ccccc2)C(c2cccc([N+](=O)[O-])c2)NC(=O)N1CCCCCC(=O)O (centres unmarked) | 5.86
CC1Cc2ccccc2N1C(=O)COC(=O)/C=C/c1cccc(F)c1 (centres unmarked) | 1.23

Structure (SMILES) | hERG current change (%, negative = inhibition) at 10uM [%]
CCc1cc(S(N)(=O)=O)cc(CC)c1NC(C)=O | 7.59
CCOC(=O)CSc1nc2sc3c(c2c(=O)n1-c1ccc(C)cc1)CCN(C)C3 | -22.4
N#Cc1nc(-c2cccs2)oc1NCCCN1CCOCC1 | -9.06
Cc1ccc(-c2nnc(N3CCN(CCO)CC3)c3ccccc23)cc1 | -58.4
O=C(c1ccccc1F)N1CCN(S(=O)(=O)c2ccc(S(=O)(=O)N3CCCCCC3)cc2)CC1 | 0.847
COc1cc(C(=O)OC2CCN(C)CC2)cc(OC)c1OC.Cl | -5.62
Cc1ccccc1-n1nnc2c(=O)oc3ccccc3c21 | 8.96
CN1CCN(CC(=O)NN(Cc2ccccc2)c2ccccc2)CC1.O=C(O)C(=O)O | -14.2
C/C(=N\NC(=O)c1cc(C)nc2ccccc12)c1ccco1 | 4.8
Cc1onc(-c2c(F)cccc2Cl)c1C(=O)NC(C)c1ccccc1 (centres unmarked) | -4.83
Cc1ccc(Nc2nc3ccccc3c(=O)s2)cc1 | 17.9
COc1cc(NC(=S)N2c3ccccc3CC2C)cc(OC)c1 (centres unmarked) | 9.02
CC1=CC(=C2N=C(c3ccccc3)OC2=O)C=C(C)O1 | -13.5
CCCC[N+]12CCC(CC1)C(C(=O)c1cccs1)C2.[Br-] (centres unmarked) | 1.45
Cc1cc(C)n(CCN(C)Cc2nc(Cc3ccccc3F)no2)n1 | 4.71
CCCCCCN(C(=O)CCCCCN1C(=O)NC(c2ccc(-c3ccccc3)cc2)C(C(=O)OCc2ccccc2)=C1C)C(C(=O)NCCCC)c1ccc(OCC(=O)OC)c(C(=O)OC)c1 (centres unmarked) | 21.9
CCOc1ccc(N(CC(=O)NCc2ccc(Cl)cc2)S(=O)(=O)c2ccccc2)cc1 | 20.4
COc1ccccc1N1CC(C)(C)C(=O)N(C(=O)c2ccc(Cl)cc2)C1=S | 2.76
Cc1ccc(C)c(NC(=O)c2cc(S(=O)(=O)N3CCOCC3)cn2C)c1 | -1.16
O=S(=O)(NCCc1csc(-c2ccc(C(F)(F)F)cc2)n1)c1ccc2c(c1)OCCO2 | 3.21
CCC(C(=O)O)N1C(=O)C2CCCCC2C1=O (centres unmarked) | 2.86
Fc1c(CSC(=S)N2CCOCC2)cccc1CSC(=S)N1CCOCC1 | 12.9
